Reference: PubChem BioAssay AID212 (DTP/NCI, 2004)
Results filed as inconclusive are left out. Not every entry of the source has a single result; some have several. This is not the full list of results. There may be further records. Values that stand side by side are repeated measurements in other runs, samples, wells, individuals or studies.

Tested on: BDF1 mice, colon carcinoma 38 sc, T/C %
Assay: NCI In Vivo Anticancer Drug Screen. Data for tumor model Colon Carcinoma 38 (subcutaneous) in B6D2F1 (BDF1) mice
Details: endpoint: median tumor weight (est.), higher = larger tumour
Procedure, shortened: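 T/C readout: treated group (T) measurement over vehicle control group (C) measurement. Endpoint is survival or tumor size in mice bearing a transplanted tumor.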

[1] = dose: 6.25 mg/kg/injection, schedule: Q07DX002 (ip), vehicle: saline with Tween-80
[2] = dose: 50.0 mg/kg/injection, schedule: Q07DX002 (ip), vehicle: saline with Tween-80
[3] = dose: 12.5 mg/kg/injection, schedule: Q07DX002 (ip), vehicle: Klucel (hydroxypropylcellulose) (HPC)
[4] = dose: 400.0 mg/kg/injection, schedule: Q07DX002 (ip), vehicle: Klucel (hydroxypropylcellulose) (HPC)
[5] = dose: 12.5 mg/kg/injection, schedule: Q07DX002 (ip), vehicle: saline with Tween-80
[6] = dose: 25.0 mg/kg/injection, schedule: Q07DX002 (ip), vehicle: saline with Tween-80
[7] = dose: 200.0 mg/kg/injection, schedule: Q07DX002 (ip), vehicle: saline with Tween-80
[8] = dose: 6.25 mg/kg/injection, schedule: Q07DX003 (ip), vehicle: Klucel (hydroxypropylcellulose) (HPC)
[9] = dose: 25.0 mg/kg/injection, schedule: Q07DX002 (ip), vehicle: Klucel (hydroxypropylcellulose) (HPC)
[10] = dose: 50.0 mg/kg/injection, schedule: Q07DX002 (ip), vehicle: Klucel (hydroxypropylcellulose) (HPC)
[11] = dose: 100.0 mg/kg/injection, schedule: Q07DX002 (ip), vehicle: Klucel (hydroxypropylcellulose) (HPC)
[12] = dose: 25.0 mg/kg/injection, schedule: Q07DX002 (ip), vehicle: saline
[13] = dose: 6.25 mg/kg/injection, schedule: Q07DX002 (ip), vehicle: Klucel (hydroxypropylcellulose) (HPC)
[14] = dose: 1.0 mg/kg/injection, schedule: Q07DX002 (ip), vehicle: saline
[15] = dose: 50.0 mg/kg/injection, schedule: Q07DX002 (ip), vehicle: saline
[16] = dose: 100.0 mg/kg/injection, schedule: Q07DX002 (ip), vehicle: saline
[17] = dose: 200.0 mg/kg/injection, schedule: Q07DX002 (ip), vehicle: saline
[18] = dose: 50.0 mg/kg/injection, schedule: Q07DX003 (ip), vehicle: Klucel (hydroxypropylcellulose) (HPC)

CC1OC1C(=O)C1(O)C(C)C(O)C23OC2(C(O)c2c(O)cccc2C3=O)C1O (configuration not stated)
T/C (dose: 16.0 mg/kg/injection, schedule: Q07DX002 (ip), vehicle: Klucel (hydroxypropylcellulose) (HPC)): 86 % of control and 122 % of control

O=c1nc(Oc2ccccc2)nc2ncccn12
T/C [1]: 94 % of control and 121 % of control
T/C [2]: 83 % of control and 120 % of control

O=C([CH-]C(=O)C(F)(F)F)c1ccccc1.O=C([CH-]C(=O)C(F)(F)F)c1ccccc1.O=C([CH-]C(=O)C(F)(F)F)c1ccccc1.O=C([CH-]C(=O)C(F)(F)F)c1ccccc1.[Eu+3].c1ccncc1
T/C [3]: 69 % of control and 102 % of control
T/C [4]: 75 % of control and 122 % of control

C[Si](C)(C)O/C=C1\CCCCC1=O
T/C [5]: 65 % of control and 111 % of control
T/C [6]: 79 % of control and 121 % of control
T/C [7]: 78 % of control and 108 % of control

C/C(=C\c1ccccc1)[N+](=O)[O-]
T/C (dose: 3.12 mg/kg/injection, schedule: Q07DX003 (ip), vehicle: Klucel (hydroxypropylcellulose) (HPC)): 67 % of control and 94 % of control
T/C [8]: 68 % of control and 118 % of control
T/C (dose: 100.0 mg/kg/injection, schedule: Q07DX003 (ip), vehicle: Klucel (hydroxypropylcellulose) (HPC)): 69 % of control and 108 % of control

C[C@@H]1C[C@H]2[C@@H]3CCC4=CC(=O)C=C[C@]4(C)[C@@]3(F)[C@@H](O)C[C@]2(C)[C@@]1(O)C(=O)CO
T/C [3]: 69 % of control, 84 % of control, 97 % of control
T/C [9]: 68 % of control, 87 % of control, 98 % of control
T/C [10]: 37 % of control, 55 % of control, 71 % of control
T/C [11]: 13 % of control, 58 % of control, 59 % of control

O=NNc1ccccn1
T/C [12]: 75 % of control and 111 % of control

CN(C)c1ccc2c(N(C)C)cc(N(C)C)nc2c1
T/C [13]: 57 % of control and 93 % of control
T/C [10]: 100 % of control and 164 % of control

O=C1C(NCCO)=C(N2CC2)C(=O)C(NCCO)=C1N1CC1
T/C (dose: 0.5 mg/kg/injection, schedule: Q07DX002 (ip), vehicle: saline): 39 % of control and 116 % of control
T/C [14]: 18 % of control and 72 % of control

O=C1C(NCC(O)CO)=C(N2CC2)C(=O)C(NCC(O)CO)=C1N1CC1 (configuration not stated)
T/C [14]: 105 % of control and 158 % of control

N=C(N)SCc1cccc2c(=O)cc(-c3ccccc3)oc12
T/C [15]: 49 % of control, 88 % of control, 100 % of control
T/C [16]: 33 % of control, 41 % of control, 112 % of control
T/C [17]: 23 % of control, 74 % of control, 78 % of control
T/C (dose: 400.0 mg/kg/injection, schedule: Q07DX002 (ip), vehicle: saline): 36 % of control, 76 % of control, 81 % of control

O=[N+]([O-])/C=C\c1ccc2c(c1)OCO2
T/C [8]: 42 % of control and 101 % of control
T/C (dose: 12.5 mg/kg/injection, schedule: Q07DX003 (ip), vehicle: Klucel (hydroxypropylcellulose) (HPC)): 36 % of control and 62 % of control
T/C [18]: 57 % of control and 101 % of control

CNc1nc(N(C)C)nc(N(C)C)n1
T/C (dose: 100.0 mg/kg/injection, schedule: Q07DX003 (ip), vehicle: saline): 55 % of control and 106 % of control

CCOC(=O)C(C)(C)Oc1ccc(Cl)cc1
T/C [6]: 94 % of control and 124 % of control

N#CCCN(C(=S)Nc1cccc(C(F)(F)F)c1)C1CCCCC1
T/C [9]: 54 % of control and 88 % of control
T/C [11]: 69 % of control, 77 % of control, 114 % of control
T/C [4]: 36 % of control, 64 % of control, 68 % of control

CC1(C)OC2C(COC(=O)c3ccc([N+](=O)[O-])cc3)OC(NC(=O)N(CCCl)N=O)C2O1 (configuration not stated)
T/C [7]: 31 % of control and 89 % of control

NC(=O)/C=C/C(=O)c1c(Cl)cccc1Cl
T/C (dose: 1.56 mg/kg/injection, schedule: Q07DX002 (ip), vehicle: saline with Tween-80): 33 % of control, 104 % of control, 108 % of control
T/C (dose: 3.12 mg/kg/injection, schedule: Q07DX002 (ip), vehicle: saline with Tween-80): 30 % of control, 113 % of control, 119 % of control
T/C [1]: 55 % of control, 100 % of control, 104 % of control
T/C [5]: 32 % of control and 96 % of control
T/C [6]: 14 % of control and 160 % of control

CC(=O)OC1=NC(C)c2c1cc(OC(C)=O)[nH]c2=O (configuration not stated)
T/C [9]: 55 % of control, 107 % of control, 120 % of control
T/C [10]: 56 % of control and 96 % of control
T/C [11]: 25 % of control, 63 % of control, 97 % of control

Cc1ccc(NC(=O)Oc2ccc(Br)cc2Br)c([N+](=O)[O-])c1
T/C [5]: 59 % of control and 117 % of control

CC1c2ccccc2Cn2cc3c(c21)C(=O)c1cccc(OP(=O)(O)OCc2ccccc2)c1C3=O (configuration not stated)
T/C (dose: 1.0 mg/kg/injection, schedule: Q01DX020 (ip), vehicle: saline): 31 % of control and 99 % of control
T/C (dose: 2.0 mg/kg/injection, schedule: Q01DX020 (ip), vehicle: saline): 18 % of control and 113 % of control
T/C (dose: 4.0 mg/kg/injection, schedule: Q01DX020 (ip), vehicle: saline): 19 % of control and 112 % of control

Cc1ccc(C(=O)[O][Hg][CH2]C2COC([CH2][Hg][O]C(=O)c3ccc(C)cc3)CO2)cc1 (configuration not stated)
T/C [13]: 123 % of control and 183 % of control
T/C [3]: 93 % of control and 153 % of control

CCC(C)C(=O)O[C@H]1C(=O)O[C@@H]2C[C@H]3C(C)=CC(=O)[C@@H](O)[C@]3(C)[C@H]3[C@@H](O)[C@H](O)[C@@]4(C)OC[C@]32[C@@H]14 (some centres not stated)
T/C (dose: 2.5 mg/kg/injection, schedule: Q07DX002 (ip), vehicle: saline + alcohol): 38 % of control and 103 % of control

COc1cccc2c1C(=O)c1c(O)c3c(c(O)c1C2=O)C[C@@](O)(C(C)=O)C[C@@H]3OC1CC(N)C(O)C(C)O1 (some centres not stated)
T/C (dose: 4.0 mg/kg/injection, schedule: Q07DX003 (ip), vehicle: saline): 30 % of control and 102 % of control

COc1cc(NS(C)(=O)=O)ccc1Nc1c2ccccc2nc2ccccc12
T/C (dose: 0.5 mg/kg/injection, schedule: Q07DX002 (ip), vehicle: other): 73 % of control and 115 % of control
T/C (dose: 2.0 mg/kg/injection, schedule: Q07DX002 (ip), vehicle: other): 58 % of control and 100 % of control
T/C (dose: 8.0 mg/kg/injection, schedule: Q07DX002 (ip), vehicle: other): 19 % of control and 74 % of control

Cc1ccc(NCCN(C)C)c2c(=O)c3cc(O)ccc3sc12
T/C [9]: 86 % of control and 119 % of control
T/C [10]: 60 % of control and 93 % of control

CC(=O)OCC1C(=O)OCC1C(=O)N1Cc2cc3ccccc3nc2C1 (configuration not stated)
T/C (dose: 8.0 mg/kg/injection, schedule: Q07DX002 (ip), vehicle: saline with Tween-80): 30 % of control and 168 % of control
T/C (dose: 16.0 mg/kg/injection, schedule: Q07DX002 (ip), vehicle: saline with Tween-80): 77 % of control and 122 % of control
T/C (dose: 32.0 mg/kg/injection, schedule: Q07DX002 (ip), vehicle: saline with Tween-80): 64 % of control and 178 % of control

c1ccc2c(c1)nnn1c3cnccc3nc21
T/C [1]: 56 % of control and 91 % of control
T/C [5]: 66 % of control and 108 % of control

CC(=O)OCC(=O)[C@@]12OC(C)(C)O[C@@H]1C[C@H]1[C@@H]3CC(C=O)=C4C=C(OCCCl)CC[C@]4(C)[C@@]3(F)[C@@H](O)C[C@@]12C
T/C [18]: 74 % of control and 116 % of control

COC(=O)C(F)C(Br)C(=O)OC (configuration not stated)
T/C [6]: 116 % of control and 155 % of control
T/C [2]: 90 % of control and 179 % of control

ClCC[N+]12CC[N+](CCCl)(CC1)C2
T/C [12]: 70 % of control and 156 % of control
T/C [15]: 101 % of control and 168 % of control
T/C [16]: 107 % of control and 169 % of control
T/C [17]: 62 % of control and 91 % of control
